Measurements reported in PMC9911399, “Two distinct binding modes provide the RNA-binding protein RbFox with extraordinary sequence specificity”.
Residue numbers refer to the chain shown, from its start. Some of the results follow.

T1: RBFOX1 RRM RbFoxmut (Fox-RRM*) (Homo sapiens, UniProt Q9NWB1 109-208, R118D;E147R;N151S;E152T)
T1 sequence: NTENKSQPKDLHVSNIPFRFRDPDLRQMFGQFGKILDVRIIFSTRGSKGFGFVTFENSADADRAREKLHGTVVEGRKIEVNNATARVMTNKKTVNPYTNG

B1: UACUAAC (DNA:RNA)
RNA: GGGAGACCGGAAUUCAGAUUGUCCUACUAACUUAAAUCCCGUCGUAGCCACCA
DNA 1: CAATCTGAATTCCGGTCTCCC
DNA 2: TGGTGGCTACGACGGGATT
B2: CCUCAAG (DNA:RNA)
RNA: B1 RNA with U25C, A26C, C27U, U28C, C31G
DNA 1: CAATCTGAATTCCGGTCTCCC
DNA 2: TGGTGGCTACGACGGGATT
B3: GAGAAGU (DNA:RNA)
RNA: B1 RNA with U25G, C27G, U28A, A30G, C31U
DNA 1: CAATCTGAATTCCGGTCTCCC
DNA 2: TGGTGGCTACGACGGGATT
B4: UGGGCGC (DNA:RNA)
RNA: B1 RNA with A26G, C27G, U28G, A29C, A30G
DNA 1: CAATCTGAATTCCGGTCTCCC
DNA 2: TGGTGGCTACGACGGGATT
B5: CGUGAAU (DNA:RNA)
RNA: B1 RNA with U25C, A26G, C27U, U28G, C31U
DNA 1: CAATCTGAATTCCGGTCTCCC
DNA 2: TGGTGGCTACGACGGGATT
B6: UUAUCAC (DNA:RNA)
RNA: B1 RNA with A26U, C27A, A29C
DNA 1: CAATCTGAATTCCGGTCTCCC
DNA 2: TGGTGGCTACGACGGGATT
B7: UUUUUAA (DNA:RNA)
RNA: B1 RNA with A26U, C27U, A29U, C31A
DNA 1: CAATCTGAATTCCGGTCTCCC
DNA 2: TGGTGGCTACGACGGGATT
B8: GAUUAAG (DNA:RNA)
RNA: B1 RNA with U25G, C27U, C31G
DNA 1: CAATCTGAATTCCGGTCTCCC
DNA 2: TGGTGGCTACGACGGGATT
B9: ACGGCGA (DNA:RNA)
RNA: GGGAGACCGGAAUUCAGAUUGUCCACGGCGAUUAAAUCCCGUCGUAGCCACCA
DNA 1: CAATCTGAATTCCGGTCTCCC
DNA 2: TGGTGGCTACGACGGGATT
B10: CUGUUUC (DNA:RNA)
RNA: B1 RNA with U25C, A26U, C27G, A29U, A30U
DNA 1: CAATCTGAATTCCGGTCTCCC
DNA 2: TGGTGGCTACGACGGGATT
B11: GCACUGC (DNA:RNA)
RNA: B9 RNA with A25G, G27A, G28C, C29U, A31C
DNA 1: CAATCTGAATTCCGGTCTCCC
DNA 2: TGGTGGCTACGACGGGATT
B12: AGUAUCU (DNA:RNA)
RNA: B9 RNA with C26G, G27U, G28A, C29U, G30C, A31U
DNA 1: CAATCTGAATTCCGGTCTCCC
DNA 2: TGGTGGCTACGACGGGATT
B13: UUUUCGC (DNA:RNA)
RNA: B1 RNA with A26U, C27U, A29C, A30G
DNA 1: CAATCTGAATTCCGGTCTCCC
DNA 2: TGGTGGCTACGACGGGATT
B14: AACCGCA (DNA:RNA)
RNA: B9 RNA with C26A, G27C, G28C, C29G, G30C
DNA 1: CAATCTGAATTCCGGTCTCCC
DNA 2: TGGTGGCTACGACGGGATT
B15: CAAUGUG (DNA:RNA)
RNA: B1 RNA with U25C, C27A, A29G, A30U, C31G
DNA 1: CAATCTGAATTCCGGTCTCCC
DNA 2: TGGTGGCTACGACGGGATT
B16: CGGUGAG (DNA:RNA)
RNA: B1 RNA with U25C, A26G, C27G, A29G, C31G
DNA 1: CAATCTGAATTCCGGTCTCCC
DNA 2: TGGTGGCTACGACGGGATT
B17: CGUAAAA (DNA:RNA)
RNA: B1 RNA with U25C, A26G, C27U, U28A, C31A
DNA 1: CAATCTGAATTCCGGTCTCCC
DNA 2: TGGTGGCTACGACGGGATT
B18: UAGUUGG (DNA:RNA)
RNA: B1 RNA with C27G, A29U, A30G, C31G
DNA 1: CAATCTGAATTCCGGTCTCCC
DNA 2: TGGTGGCTACGACGGGATT
B19: CUAUCAG (DNA:RNA)
RNA: B1 RNA with U25C, A26U, C27A, A29C, C31G
DNA 1: CAATCTGAATTCCGGTCTCCC
DNA 2: TGGTGGCTACGACGGGATT
B20: GCAUCUG (DNA:RNA)
RNA: B9 RNA with A25G, G27A, G28U, G30U, A31G
DNA 1: CAATCTGAATTCCGGTCTCCC
DNA 2: TGGTGGCTACGACGGGATT

biological target: T1, RBFOX1 RRM RbFoxmut (Fox-RRM*); experiment: EMSA; HiTS-Eq, 1 nM pool, 10 min; buffer printed only for the single-RNA assays: 10 mM Tris pH 7.5, 150 mM NaCl, 3.4 mM EDTA, 0.001% NP-40, 30 C; settings: tags: His6 N-terminal (pET28a); label: 5' 32P
In short: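 Purified RbFox RRM, wild type or mutant, was incubated for 10 min in 50 µL with 1 nM of a 5′-radiolabelled RNA pool carrying 7 randomized nucleotides, whose flanks were annealed to DNA oligonucleotides, over a series of increasing protein concentrations. Unbound RNA was resolved on 8% native PAGE, cut out, reverse-transcribed, barcoded by PCR and sequenced on an Illumina HiSeq 2500. Relative association constants were derived from changes in read counts for each RNA species versus the control reaction and normalised to the cognate motif.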

| Binder | binding signal |
| --- | --- |
| B1 | 0.0859 KA relative to UGCAUGU |
| B2 | 0.111 KA relative to UGCAUGU |
| B3 | 0.098 KA relative to UGCAUGU |
| B4 | 0.135 KA relative to UGCAUGU |
| B5 | 0.123 KA relative to UGCAUGU |
| B6 | 0.115 KA relative to UGCAUGU |
| B7 | 0.1 KA relative to UGCAUGU |
| B8 | 0.0936 KA relative to UGCAUGU |
| B9 | 0.1 KA relative to UGCAUGU |
| B10 | 0.189 KA relative to UGCAUGU |
| B11 | 0.0626 KA relative to UGCAUGU |
| B12 | 0.142 KA relative to UGCAUGU |
| B13 | 0.0719 KA relative to UGCAUGU |
| B14 | 0.129 KA relative to UGCAUGU |
| B15 | 0.0932 KA relative to UGCAUGU |
| B16 | 0.106 KA relative to UGCAUGU |
| B17 | 0.102 KA relative to UGCAUGU |
| B18 | 0.107 KA relative to UGCAUGU |
| B19 | 0.0894 KA relative to UGCAUGU |
| B20 | 0.264 KA relative to UGCAUGU |
